Results on two molecules are retold here after patent US20170058015A1 (ALBERT EINSTEIN COLLEGE OF MEDICINE, published 2017).

Assay [1] concerns the target T1, recombinant mouse 4-1BB-Fc fusion protein (mouse, UniProt P20334 24-187).
T1 construct: From commercial sources; coated on Protein A microbeads; also called murine 4-1BB; murine receptor; not shown: Fc of the commercial fusion protein
T1 sequence (looked up): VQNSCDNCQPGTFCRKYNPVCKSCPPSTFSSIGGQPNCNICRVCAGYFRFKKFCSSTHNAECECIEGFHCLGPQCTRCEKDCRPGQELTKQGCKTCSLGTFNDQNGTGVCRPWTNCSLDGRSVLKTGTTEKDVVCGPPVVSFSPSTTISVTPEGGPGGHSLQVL
The assay can be described thus: flow cytometry, Protein A microbeads coated with 4-1BB-Fc; detection antibody to the synTac heavy chain isotype. A general note: In flow cytometry, cells or beads pass a laser one at a time.

For assay [2], the target named is T2, recombinant human 4-1BB-Fc fusion protein (human, UniProt Q07011 24-186).
T2 construct: From commercial sources; coated on Protein A microbeads; also called human receptor; not shown: Fc of the commercial fusion protein
Described as above.

B1: synTac 69/98 (DL1, disulfide lock-1; 4-1BBL Q94C:P245C) (Fc fusion)
b2m: VYLKTNVFLGCGASGGGGSGGGGSMIQKTPQIQVYSRHPPENGKPNILNCYVTQFHPPHIEIQMLKNGKKIPKVEMSDMSFSKDWSFYILAHTEFTPTETDTYACRVKHASMAEPKTVYWDRDMGGGGSGGGGSGGGGSGGGGSGGGGS[sequence of about 200 residues with changes not given]SGSGATNFSLLKQAGDVEENPG
MHC heavy: GPHSLRYFVTAVSRPGLGEPRFIAVGYVDDTQFVRFDSDADNPRFEPRAPWMEQEGPEYWEEQTQRAKSDEQWFRVSLRTAQRCYNQSKGGSHTFQRMFGCDVGSDWRLLRGYQQFAYDGRDYIALNEDLKTWTAADTAALITRRKWEQAGDAEYYRAYLEGECVEWLRRYLELGNETLLRTDSPKAHVTYHPRSQVDVTLRCWALGFYPADITLTWQLNGEDLTQDMELVETRPAGDGTFQKWAAVVVPLGKEQNYTCHVHHKGLPEPLTLRWAAAGGPRGPTIKPCPPCKCPAPNLLGGPSVFIFPPKIKDVLMISLSPIVTCVVVDVSEDDPDVQISWFVNNVEVHTAQTQTHREDYNSTLRVVSALPIQHQDWMSGKEFKCKVNNKDLPAPIERTISKPKGSVRAPQVYVLPPPEEEMTKKQVTLTCMVTDFMPEDIYVEWTNNGKTELNYKNTEPVLDSDGSYFMYSKLRVEKKNWVERNSYSCSVVHEGLHNHHTTKSFSRTPGKGGSHHHHHHHH
chain: [sequence of about 200 residues with changes not given]
modifications: Engineered disulfides […] between 4-1BBL protomers. Disulfide between linker Cys and H-2Kd Cys84. Fc hinge disulfides.
notes: copies: 2 + 2 + 4
For B1, the binding result in assay [1] and in assay [2] was “binds” each time.

B2: synTac 70/99 (DL2; 4-1BBL Q94C:P242C) (Fc fusion)
b2m: VYLKTNVFLGCGASGGGGSGGGGSMIQKTPQIQVYSRHPPENGKPNILNCYVTQFHPPHIEIQMLKNGKKIPKVEMSDMSFSKDWSFYILAHTEFTPTETDTYACRVKHASMAEPKTVYWDRDMGGGGSGGGGSGGGGSGGGGSGGGGS[sequence of about 200 residues with changes not given]SGSGATNFSLLKQAGDVEENPG
MHC heavy: B1 MHC heavy
chain: [sequence of about 200 residues with changes not given]
modifications: Engineered disulfides […] between 4-1BBL protomers. Disulfide between linker Cys and H-2Kd Cys84. Fc hinge disulfides.
notes: copies: 2 + 2 + 4
B2: the binding result in assay [1] and in assay [2] was “binds” each time.
